Measured values published in US20240082414A1 (Eli Lilly, published 2024).

Columns and labels:
[1] = target: T1, human FcγRIIb (CD32b) extracellular domain (human, UniProt P31994 43-217); experiment: SPR (Biacore), antibody captured on Protein A, FcγR ECD as analyte, steady state, 25° C.
T1 construct: extracellular domain
T1 sequence (looked up): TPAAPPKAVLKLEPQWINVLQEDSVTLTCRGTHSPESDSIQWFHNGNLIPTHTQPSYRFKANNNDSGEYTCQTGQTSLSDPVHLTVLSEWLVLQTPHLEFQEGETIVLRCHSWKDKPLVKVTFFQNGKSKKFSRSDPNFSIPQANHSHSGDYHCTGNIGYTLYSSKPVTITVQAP
Protocol: (§1) Injections of 2×10 μL of glycine, pH 1.5, was used to remove any noncovalently associated protein. […] FC1 was the reference FC, therefore no antibody was captured in FC1. […] Duplicate injections of each concentration were injected over all FCs at 40 μL/minute for 120 seconds followed by a 1200 second dissociation phase. Regeneration was performed by injecting 15 μL of 10 mM glycine, pH 1.5, at 30 μL/minute over all FCs. Reference-subtracted data was collected as FC2 FC1, FC3-FC1, and FC4-FC1 and the measurements were obtained at 25° C. The affinity (KD) was calculated using either steady state equilibrium analysis with the Scrubber 2 Biacore Evaluation Software or a “1:1 (Langmuir) binding” model in BIA Evaluation. […] FC1 was the reference FC. […] Duplicate injections of each concentration were injected over all FCs at 40 μL/minute for 60 seconds followed by a 120 second dissociation phase. Regeneration was performed by injecting 15 μL of 10 mM glycine, pH 1.5, at 30 μL/minute over all FCs. Reference-subtracted data was collected as FC2-FC1, FC3-FC1, and FC4-FC1, and the measurements were obtained at 25° C. The affinity (KD) was calculated using the steady state equilibrium analysis with the Scrubber 2 Biacore Evaluation Software. Each receptor was assayed at least two times.

[2] = target: T2, human FcγRI (CD64) extracellular domain (human, UniProt P12314 16-292); experiment: SPR (Biacore), antibody captured on Protein A, FcγR ECD as analyte, 25° C.
T2 construct: extracellular domain; also called FcγRI ECD
T2 sequence (P12314 16-292): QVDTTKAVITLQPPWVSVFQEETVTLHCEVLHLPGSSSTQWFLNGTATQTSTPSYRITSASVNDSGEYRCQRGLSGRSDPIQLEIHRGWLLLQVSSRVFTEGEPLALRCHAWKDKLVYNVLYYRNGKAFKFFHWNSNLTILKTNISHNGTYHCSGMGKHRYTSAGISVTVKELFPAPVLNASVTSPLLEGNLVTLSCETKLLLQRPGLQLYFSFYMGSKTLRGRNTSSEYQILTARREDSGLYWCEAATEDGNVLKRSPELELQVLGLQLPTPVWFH
Protocol: as §1

[3] = target: T3, human TNFα (recombinant, soluble) (human, UniProt P01375 fragment); experiment: cell-based or functional assay
[4] = target: T3, human TNFα (recombinant, soluble); experiment: antigen-down ELISA, plate coated with human TNFα
T3 sequence (P01375 77-233 limits assumed): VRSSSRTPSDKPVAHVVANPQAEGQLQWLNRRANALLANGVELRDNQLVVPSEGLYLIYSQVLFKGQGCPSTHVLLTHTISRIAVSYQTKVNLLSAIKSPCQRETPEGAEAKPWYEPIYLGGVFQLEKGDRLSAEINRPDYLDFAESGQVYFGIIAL
Protocol: Example 2a. […] Briefly, 384-well high binding plates (Greiner Bio-one #781061) were coated with 20 μL per well of 1 μg/mL of human TNFα (Syngene), 2 μg/mL of rhesus macaque TNFα (R&D Systems, Cat# 1070-RM), or 2 μg/mL of canine TNFα (R&D Systems, Cat# 1507-CT/CF) diluted in carbonate buffer pH 9.3 (0.015 M Na₂CO₃ and 0.035 M NaHCO₃) and stored at 4° C. overnight. […] The plates were incubated at 37° C. for 90 min, then washed three times in PBS/0.1% Tween. 20 μL of secondary antibody reagent goat-anti-human-kappa-AP (Southern Biotech, Cat# 2060-04) with 1:1500 dilution was added to the plate and incubated for 45 minutes at 37° C. Plates were washed 3 times as above, and 20 μL of alkaline phosphatase substrate solution diluted to 1:35 in molecular grade water was added to every well. Once the color developed (approximately 15-30 min), plates were read at 560 nm OD on a Molecular Device Spectramax plate reader and data was acquired using Softmax Pro 4.7 software. Data analysis was performed in GraphPad Prism.

B1: anti-human TNFα Ab1 GC conjugate of Example 1b (n is 4) (antibody, human IgG1, kappa)
heavy: QVQLVQSGAEVKKPGASVKVSCKASGYTFTGYYIHWVRQAPGQGLEWMGWINPYTGGTNYAQKFQGRVTMTRDTSISTAYMELSRLRSDDTAVYYCARDLYGSSNYGGDVWGQGTTVTVSSASTKGPCVFPLAPSSKSTSGGTAALGCLVKDYFPEPVTVSWNSGALTSGVHTFPAVLQSSGLYSLSSVVTVPSSSLGTQTYICNVNHKPSNTKVDKRV[left out - human IgG1 Fc with A378C (EU numbers)]
light: DIQMTQSPSSLSASVGDRVTITCQASQGISNYLNWYQQKPGKAPKLLIYDASNLETGVPSRFSGSGSGTDFTFTISSLQPEDIATYYCQQYDKLPLTFGGGTKVEIKRTVAAPSVFIFPPSDEQLKSGTASVVCLLNNFYPREAKVQWKVDNALQSGNSQESVTEQDSKDSTYSLSSTLTLSKADYEKHKVYACEVTHQGLSSPVTKSFNRGEC
modifications: glucocorticoid receptor agonist payload-linker GC-L (Preparation 8) conjugated to the engineered cysteines at the 124 and 378 position of the heavy chain (EU numbering); average DAR 4.00-4.23
notes: Antibody-drug conjugate of Ab1 with the glucocorticoid payload-linker
- Kd [1]: 1300 nM
- Kd [2]: 0.0486 nM
- Inhibition of soluble human TNFα induced apoptosis IC50 (L929 cells) [3]: 0.104 µg/mL
- EC50 [4]: 0.325 µg/mL
